Test results taken from PubChem BioAssay AID488969 (Vanderbilt High Throughput Screening Facility, 2010).
Whole data set: some 110,000 compounds, median “z-score” near -0.1, cut for the highest 2% near 2. This is one part of the list. The source made the active and inactive calls.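 The calls were made as follows: active = z-score in the third read window above 3 or below -3; inactive = the rest.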

Biological target: Metabotropic glutamate receptor 8 (Rattus norvegicus) (UniProt P70579)
Experiment: mGluR8 Gi/Go-coupled signaling modulation – cell-based, rat, thallium flux, HTS, primary screen (AID 488969)
Conditions: HEK293 rat mGluR8, GIRK (G protein-gated inwardly rectifying potassium channel) thallium flux, FluoZin2; at 10 µM; stronger effect = higher value; submaximal glutamate (EC20) added with thallium

Sequence of UniProt P70579 (P70579 whole entry, looked up): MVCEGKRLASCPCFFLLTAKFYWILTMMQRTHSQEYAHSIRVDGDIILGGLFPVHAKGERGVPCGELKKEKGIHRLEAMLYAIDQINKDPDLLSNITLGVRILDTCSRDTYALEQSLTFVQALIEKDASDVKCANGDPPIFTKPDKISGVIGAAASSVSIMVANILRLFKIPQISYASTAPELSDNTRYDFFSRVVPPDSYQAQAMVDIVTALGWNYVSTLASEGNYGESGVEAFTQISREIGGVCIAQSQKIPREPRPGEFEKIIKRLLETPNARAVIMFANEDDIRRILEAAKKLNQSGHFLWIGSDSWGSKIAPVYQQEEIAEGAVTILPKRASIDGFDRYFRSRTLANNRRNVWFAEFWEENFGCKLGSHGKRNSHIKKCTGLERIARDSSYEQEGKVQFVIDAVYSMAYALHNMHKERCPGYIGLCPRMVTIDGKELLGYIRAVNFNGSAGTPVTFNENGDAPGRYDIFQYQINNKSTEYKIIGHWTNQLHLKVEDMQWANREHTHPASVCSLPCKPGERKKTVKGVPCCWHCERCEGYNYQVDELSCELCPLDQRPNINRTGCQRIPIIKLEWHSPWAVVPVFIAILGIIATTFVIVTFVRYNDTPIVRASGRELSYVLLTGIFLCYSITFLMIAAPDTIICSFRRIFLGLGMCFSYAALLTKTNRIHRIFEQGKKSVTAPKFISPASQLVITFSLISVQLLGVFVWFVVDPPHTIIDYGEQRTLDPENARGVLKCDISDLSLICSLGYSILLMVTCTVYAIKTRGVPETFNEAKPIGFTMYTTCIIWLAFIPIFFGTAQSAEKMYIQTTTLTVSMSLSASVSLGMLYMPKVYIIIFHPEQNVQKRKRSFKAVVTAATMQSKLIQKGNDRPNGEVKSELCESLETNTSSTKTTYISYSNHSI

Compound	z-score
C=CCn1c(SCC(=O)Nc2sccc2C(N)=O)nc2sc(CC)cc2c1=O	-1.15
COc1ccc(CCNC(=O)NC23CC4CC(CC(C4)C2)C3)cc1	0.569
O=C(NCCC1=CCCCC1)C1CCN(S(=O)(=O)c2cnc[nH]2)CC1	-1.18
COc1ccc(OC)c(S(=O)(=O)N2CCC(C(=O)Nc3cc(C)ccc3C)CC2)c1	-0.034
CCOC(=O)c1c(NC(=O)c2c(Br)cnn2C)c(C#N)nn1-c1ccccc1	-0.287
Cc1[nH]c(=O)c(C#N)c2c1CSC(C)(C)C2	-0.624
Cc1ccc(SCC(=O)N(Cc2nc(-c3ccccc3)no2)C(C)C)cc1	-0.437
NNC(=O)CNC(c1ccccc1)c1cc(Br)ccc1NC(=O)CCN1CCOCC1 (stereo not given)	-0.177
NS(=O)(=O)c1ccc(CCNC(=O)c2cncc(Br)c2)cc1	0.213
Cc1cc(NO)c(C(C)C)cc1N=O	-0.242
O=C(N/C(=C\c1ccc(Br)cc1)c1nc2ccccc2[nH]1)c1ccco1	0.053
COc1ccc(NC(=O)Nc2ccccc2F)cc1	-0.113
COc1ccccc1CNC(=O)C(CCSC)NS(=O)(=O)c1ccc2c(c1)oc(=O)n2C (stereo not given)	-0.0879
COc1ccc(/C(N)=N/OC(=O)c2cccc([N+](=O)[O-])c2C)cc1OC	0.671
Cc1ccc(NC(=O)N/C=C/c2ccccc2)cc1	0.0496
CC(C)NS(=O)(=O)c1ccc(NC(=O)C(C)Oc2ccc(C(=O)c3ccccc3)cc2)cc1 (stereo not given)	0.21
COc1ccc(C(=O)N2CCN(c3ccc(C)cc3)CC2)cc1OC	-0.296
Cc1oc(C(C)(C)C)cc1C(=O)Nc1ccc2c(c1)OCCO2	-0.556
CC(C)(C)Nc1nc2nonc2nc1NC(C)(C)C	-0.28
CCOC(=O)CN1C(=O)C(=O)c2cccc(C)c21	-0.0105
COc1ccc(C(=O)c2c(C(F)(F)F)oc3c2C(=O)c2ccccc2C3=O)cc1OC	-0.0606
CC(C)CC(=O)Nc1cc([N+](=O)[O-])ccc1Cl	-0.0735
CCOC(=O)N1CCN(S(=O)(=O)c2ccc(C(=O)Nc3nnc(CC)o3)cc2)CC1	-0.247
Cc1ccc(-c2c(C(=O)N(C)Cc3ccccc3)oc(=O)c3ccccc23)cc1	-0.139
Cc1ccc2c(Cl)cc(Cl)c(OCC(=O)OCC(=O)Nc3ccc(C#N)cc3)c2n1	-0.255
O=c1c2sccc2n(Cc2cccc(F)c2)c(=O)n1-c1ccc(F)cc1	-0.583
O=C1CSC(c2ccccn2)N1c1ccc2ccccc2c1 (stereo not given)	-0.0313

Compound	z-score
CCOc1cc(/C=C2\SC(=N)N(c3nonc3N)C2=O)ccc1OCC(N)=O	-0.0536
COc1ccc(S(=O)(=O)Cc2ccc(C(=O)N3CCN(c4cc(Cl)ccc4C)CC3)o2)cc1	0.0669
COC(=O)C1CCN(S(=O)(=O)c2cn(C)c(=O)n(C)c2=O)CC1	-0.112
N=C1C(c2nc3ccccc3[nH]2)=C(O)CN1c1ccc(F)cc1	0.0438
Cc1cccc(OCCNc2cc(N3CCOCC3)ccc2[N+](=O)[O-])c1	-0.314
O=C(CSCCO)Nc1ccc(C23CC4CC(CC(C4)C2)C3)cc1	-0.16
CCc1nnc(NC(=O)CSc2nnc(-c3ccoc3C)n2-c2ccccc2)s1	-0.156
CC(=O)c1ccc(N2CCN(C(=O)c3cc(-c4ccc5c(c4)OCO5)nc4ccccc34)CC2)cc1	-0.276
Cc1ccc(NC(=O)c2sccc2SCc2cccc(C(F)(F)F)c2)cc1	-0.19
Cc1cc([N+](=O)[O-])cc2c1NC(=O)C2(O)N1CCCCCC1 (stereo not given)	-0.0486
Cc1cc(NC(=O)CSc2nc3c(c(=O)n(C)c(=O)n3C)n2C(C)C)no1	0.206
COc1cccc(C2=NOC(C(=O)Nc3ccc(C(C)=O)cc3)C2)c1 (stereo not given)	-0.778
COc1cc(/C=N/NC(=O)COc2cccc(F)c2)ccc1OS(=O)(=O)c1ccc(C)cc1	-0.0387
Cc1ccnc(NC(=S)NC(=O)c2ccco2)c1	2
CCOC(=O)CSC1=C(C#N)C(c2ccc(C)cc2)C(C(=O)OC)C(=O)N1 (stereo not given)	-0.932
CCOc1ccc(S(=O)(=O)N(CC(=O)N/N=C/c2ccc(-c3ccc([N+](=O)[O-])cc3)o2)c2ccccc2)cc1	-0.0678
FC(F)(F)C(Oc1nc(Nc2ccc(Cl)cc2)nc(N2CCOCC2)n1)C(F)(F)F	0.0647
CCc1nnc(NC(=O)COC(=O)CN2C(=O)c3ccccc3C2=O)s1	1.33
Nc1nc(N2CCOCC2)nc(N(c2ccccc2)c2ccccc2)n1	-0.39
Cc1nn(C)c(C(=O)NCc2ccc(Cl)cc2)c1Cl	-0.28
CS(=O)(=O)N1CCN(c2ccc(NC(=O)CSc3ccc(Cl)cc3)cc2)CC1	0.105
CN(c1ccccc1C(=O)Nc1ccc(S(=O)(=O)N2CCCCC2)cc1)S(C)(=O)=O	-0.137
CCn1c(NC2CCCCC2)nc2ccccc21	0.351
CCOC(=O)N1CCN(CCC(=O)Nc2ccc(C)cc2)CC1	-0.64
N#CCSc1nc2scc(-c3cccs3)c2c(=O)n1CCc1ccccc1	0.726
CCCc1cc(C(=O)Cc2ccc(F)cc2)c(O)cc1O	-0.505
COC(=O)C1=C(N)Oc2cc(C)n(CC3CCCO3)c(=O)c2C1c1ccc(Cl)c(Cl)c1 (stereo not given)	-1.34

Compound	z-score
NC(=O)C(c1ccc(Cl)cc1Cl)c1ncc(C(F)(F)F)cc1Cl (stereo not given)	-0.00615
Cc1cccc(N2C(=O)CC(N3CCN(C(=O)c4ccccc4)CC3)C2=O)c1 (stereo not given)	0.683
CCOC(=O)c1c(NC(=O)/C=C/c2ccc3c(c2)OCO3)sc(C)c1C	-0.151
C=CCN1C(=O)/C(=C2/C(=O)N(CC(=O)O)c3ccccc32)S/C1=N/c1nccs1	-0.107
COc1ccc(-n2nnnc2S(=O)(=O)Cc2ccc(C(=O)O)cc2)cc1	0.0183
C=CCn1c(-c2cccn(Cc3ccccc3)c2=O)n[nH]c1=S	-0.000758
O=C(/C(C=Nc1ccc(F)cc1)=C(/O)c1ccco1)C(F)(F)F	-0.439
c1coc(CNc2ncnc3c2oc2ccccc23)c1	-0.21
O=C(Cn1c(C(F)(F)F)nc2ccccc21)N1CCCC1	-0.117
Cc1ccc(S(=O)(=O)N(C)C)cc1-n1c(SCC(=O)Nc2ccc(F)cc2Cl)nc2ccccc2c1=O	-0.461
O=C(NNC(=O)c1cccs1)c1ccc(Cl)c([N+](=O)[O-])c1	-0.409
O=C1c2cnc3nc(SCc4ccc(Cl)cc4)nn3c2CC2c3ccccc3CCN12 (stereo not given)	-1.6
Cc1cccc(N2CN=c3s/c(=C\c4ccncc4)c(=O)n3C2)c1	-0.028
Cc1csc(SCC(=O)c2ccc(S(=O)(=O)N3CCOCC3)cc2)n1	-0.0519
CCc1ccc2nc3sc(C(=O)Nc4nnc(CC)s4)c(N)c3cc2c1	-0.714
COC(=O)C1C(O)=C(C=NCc2ccccc2)C(=O)CC1(C)C (stereo not given)	-0.152
COC(=O)c1ccc(NC(=O)C2CC(=O)N(c3ccc(C)cc3)C2)cc1 (stereo not given)	0.761
CCOC(=O)C(CC)(CC)C(=O)/C=C/c1ccc(Br)cc1	-0.128
CN1c2ccccc2C(C)(C)C12C=Nc1c(ccc3ccccc13)O2 (stereo not given)	-0.325
CCOc1cc2[nH]c(=S)n(CCN3CCC(C)CC3)c(=O)c2cc1OCC	0.809
CCOc1cccc(N2C(=O)CC(N3CCC(C(N)=O)(N4CCCCC4)CC3)C2=O)c1 (stereo not given)	-0.0822
CCCN1CCN(C(=O)CCCn2c(C)c3cnn(-c4ccccc4)c(=O)c3c2C)CC1	0.112
CC1CSc2ccccc2NC1=S (stereo not given)	active: 3.72
O=C(CNS(=O)(=O)c1ccc2ccccc2c1)OCC(=O)c1ccc(Br)s1	-0.175
O=C(NCCO)C(c1ccccc1)c1ccccc1	0.56
O=C(Nc1ccc2c(c1)OCCO2)c1ccc(Cl)c(S(=O)(=O)N2CCCCC2)c1	-0.285
O=C(COc1ccc(Cl)cc1Cl)NCCSc1ccc(Cl)cc1	-0.0359

Compound	z-score
Cc1cc(C(=O)NCCCN2CCCC2=O)no1	-0.444
CN(C)S(=O)(=O)Oc1ccsc1C(=O)Nc1ccc(Cl)c(Cl)c1	0.0131
Nc1cccc(CCc2nc3cc4ccccc4cc3[nH]2)c1	0.696
Brc1ccc(-c2csc(N3CCC(c4ccccc4)C3)n2)cc1 (stereo not given)	-0.0671
Nc1ccc(C(=O)N/N=C2\CCCc3c2[nH]c2ccccc32)cc1	-0.45
CN(CCC#N)c1ncnc2scc(-c3ccccc3)c12	0.579
Cc1cccc(N/C=C/c2onc(C)c2[N+](=O)[O-])c1	1.43
COCCOC(=O)c1[nH]c2c(c1C)C(=O)CC(c1ccccc1)C2 (stereo not given)	-0.248
O=C1N/C(=C/c2ccc(N3CCCC3)cc2)C(=O)N1c1ccccc1	-0.886
O=C(COC(=O)/C=C/c1cccs1)NC(c1ccccc1)c1ccccc1	0.053
FC(F)Oc1ccc(NC(=S)NN2CCOCC2)cc1	-0.416
CC(C)CCNC(=O)NC(=O)COC(=O)C1CCN(S(=O)(=O)c2ccccc2F)CC1	0.03
COc1ccc(/C=N/NC(=O)c2cc(-c3ccccc3OC(C)C)nc3ccccc23)cc1CN1CCOCC1	-0.266
Cc1ccc(C)c(-n2nnnc2SCC(=O)Nc2c(C)n(C)n(-c3ccccc3)c2=O)c1	1.63
c1ccc(-c2cc(-c3nnc4n3N=C(c3ccc5ccccc5c3)CS4)[nH]n2)cc1	-0.0208
Cc1cc(C)c(C#N)c(N2CCN(CCOc3ccc(Cl)cc3)CC2)n1	-0.184
CCOC(=O)c1ccc(NC(=O)CC2C(=O)N(c3ccc(F)cc3)C(=O)N2CCC(C)C)cc1 (stereo not given)	-0.0747
COC(=O)C1=C(C)N(Cc2ccco2)C(=O)/C1=C\c1ccc(N(C)C)cc1	-0.621
CN(Cc1ccccc1)c1nc2c(c(=O)[nH]c(=O)n2C)n1CCCc1ccccc1	-0.199
COC(=O)c1ccc2c(=O)n(Cc3ccco3)c(SCC(=O)Nc3ccc(C)c(Cl)c3)nc2c1	0.24
COc1ccc(-c2nnc(SCC(=O)NCc3cccs3)n2C(C)C)cc1	-0.0199
COc1cc2c(cc1OC)CN(CC(=O)Nc1ccc(C)cc1)CC2	0.353
Cc1c(Cl)cccc1NC(=O)CC1NCCNC1=O (stereo not given)	0.148
COc1ccc(CC(=O)OC(C)CN2CCCC2)cc1 (stereo not given)	0.0072
